{"source": "the supplement of paper PMC8728848", "binders": {"B1": {"name": "CvGal1 (Crassostrea virginica), A7Y0I5 (protein)", "chain": "MTYQISKISQPFTSYIPNGLHIGKHLLLRGRVSYGTEAFAINLQQNPEPCNGEVAFHFNPRPGEQQCVRNSFDGGSWMDEERDQPHFPFDEGRSFTLRIEVAEEGFRTYVNGKPYVNFSHRLDLGNVHYLYLTEGAEFYDISYQDRYTLPYKSEIPQQMNVGKAVRIRGASQDNDGFSVNFACDPDNENCAFHFNPRPNEGVVVRNANLGGWGDEERDYEAEFPFHPYNYFDAMFICTDDKYLVHVNDKYFTEFNHRGGVDASSFFNIVGNLDIQDVEYFEPLEDDFVKTIPSGLVKGDVLIFRGFMKPGGDTFSINFMNGYSVEDDIAFHLNPRVGEGQVVMNCCMGGAWGDEEREDIPSPLADREPFEVKVVVKKNKFKVYVNGKKCMKFAARGNLEDIKGVNIKGEAYVYEVKLERKLEDSWEYLPGGFRVGGWVVVQAIPKKGSEGFAINFRTGSDEDSDIAFHFNPRLQENCTIRNSCAGGAWGGEERDQPDFPFEKKDTCEIAIQAQPDRFVTYVNGKRYIEFNHRLPLESITCVELTGRADFFEPKFF"}}, "test_in_all_cases": "glycan array binding signal (z-score within array); higher = stronger binding", "settings_in_all_cases": "glycan notation: IUPAC condensed, linker removed", "key": {"[1]": {"molecular_target": "Fuc(a1-2)Gal(b1-4)GlcNAc(b1-3)Gal(b1-4)GlcNAc(b1-3)Gal(b1-4)GlcNAc", "in_short": "(§1)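 Glycan array data were curated from 3228 arrays in the Consortium for Functional Glycomics database and kept only where the protein sequence was available. Glycan names were converted to IUPAC-condensed notation, and columns mapping to the same glycan were averaged. The binding signal is a within-array Z-score, averaged across arrays of the same protein sequence at different concentrations or buffers and across linkers. Negative Z-scores can be read as non-binding.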"}, "[2]": {"molecular_target": "Fuc(a1-2)Gal(b1-4)GlcNAc(b1-3)GalNAc", "in_short": "as §1"}, "[3]": {"molecular_target": "Fuc(a1-2)Gal(b1-4)GlcNAc(b1-3)[Fuc(a1-2)Gal(b1-4)GlcNAc(b1-6)]GalNAc", "in_short": "as §1"}, "[4]": {"molecular_target": "Fuc(a1-2)Gal(b1-4)GlcNAc(b1-6)GalNAc", "in_short": "as §1"}, "[5]": {"molecular_target": "Fuc(a1-2)Gal(b1-4)GlcNAc6S", "in_short": "as §1"}, "[6]": {"molecular_target": "Fuc(a1-2)Gal(b1-4)[Fuc(a1-3)]GlcNAc", "in_short": "as §1"}, "[7]": {"molecular_target": "Fuc(a1-2)Gal(b1-4)[Fuc(a1-3)]GlcNAc(b1-2)Man(a1-3)[Fuc(a1-2)Gal(b1-4)[Fuc(a1-3)]GlcNAc(b1-2)Man(a1-6)]Man(b1-4)GlcNAc(b1-4)GlcNAc", "in_short": "as §1"}, "[8]": {"molecular_target": "Fuc(a1-2)Gal(b1-4)[Fuc(a1-3)]GlcNAc(b1-2)Man(a1-6)[Fuc(a1-2)Gal(b1-4)[Fuc(a1-3)]GlcNAc(b1-2)Man(a1-3)]Man(b1-4)GlcNAc(b1-4)[Fuc(a1-6)]GlcNAc", "in_short": "as §1"}, "[9]": {"molecular_target": "Fuc(a1-2)Gal(b1-4)[Fuc(a1-3)]GlcNAc(b1-2)[Fuc(a1-2)Gal(b1-4)[Fuc(a1-3)]GlcNAc(b1-4)]Man(a1-3)[Fuc(a1-2)Gal(b1-4)[Fuc(a1-3)]GlcNAc(b1-2)Man(a1-6)]Man(b1-4)GlcNAc(b1-4)GlcNAc", "in_short": "as §1"}, "[10]": {"molecular_target": "Fuc(a1-2)Gal(b1-4)[Fuc(a1-3)]GlcNAc(b1-3)Gal(b1-4)[Fuc(a1-3)]GlcNAc", "in_short": "as §1"}, "[11]": {"molecular_target": "Fuc(a1-2)Gal(b1-4)[Fuc(a1-3)]GlcNAc(b1-3)Gal(b1-4)[Fuc(a1-3)]GlcNAc(b1-3)Gal(b1-4)[Fuc(a1-3)]GlcNAc", "in_short": "as §1"}, "[12]": {"molecular_target": "Fuc(a1-2)Gal(b1-4)[Fuc(a1-3)]GlcNAc(b1-3)GalNAc", "in_short": "as §1"}, "[13]": {"molecular_target": "Fuc(a1-2)Gal(b1-4)[Fuc(a1-3)]GlcNAc(b1-3)[Neu5Ac(a2-6)Gal(b1-4)GlcNAc(b1-6)]Gal(b1-4)Glc", "in_short": "as §1"}, "[14]": {"molecular_target": "Fuc(a1-2)Gal6S(b1-3)GlcNAc", "in_short": "as §1"}, "[15]": {"molecular_target": "Fuc(a1-2)Gal6S(b1-3)GlcNAc6S", "in_short": "as §1"}, "Fuc(a1-2)Gal6S(b1-4)Glc": {"molecular_target": "Fuc(a1-2)Gal6S(b1-4)Glc", "in_short": "as §1"}, "[16]": {"molecular_target": "Fuc(a1-2)Gal6S(b1-4)Glc6S", "in_short": "as §1"}, "[17]": {"molecular_target": "Fuc(a1-2)Gal6S(b1-4)GlcNAc", "in_short": "as §1"}, "Fuc(a1-2)[Gal(a1-3)]Gal": {"molecular_target": "Fuc(a1-2)[Gal(a1-3)]Gal", "in_short": "as §1"}, "[18]": {"molecular_target": "Fuc(a1-2)[Gal(a1-3)]Gal(b1-3)GalNAc", "in_short": "as §1"}, "[19]": {"molecular_target": "Fuc(a1-2)[Gal(a1-3)]Gal(b1-3)GlcNAc", "in_short": "as §1"}, "[20]": {"molecular_target": "Fuc(a1-2)[Gal(a1-3)]Gal(b1-3)GlcNAc(b1-2)Man(a1-3)[Fuc(a1-2)[Gal(a1-3)]Gal(b1-3)GlcNAc(b1-2)Man(a1-6)]Man(b1-4)GlcNAc(b1-4)GlcNAc", "in_short": "as §1"}, "[21]": {"molecular_target": "Fuc(a1-2)[Gal(a1-3)]Gal(b1-3)GlcNAc(b1-2)Man(a1-3)[Fuc(a1-2)[Gal(a1-3)]Gal(b1-3)GlcNAc(b1-2)Man(a1-6)]Man(b1-4)GlcNAc(b1-4)[Fuc(a1-6)]GlcNAc", "in_short": "as §1"}, "[22]": {"molecular_target": "Fuc(a1-2)[Gal(a1-3)]Gal(b1-3)GlcNAc(b1-3)GalNAc", "in_short": "as §1"}, "[23]": {"molecular_target": "Fuc(a1-2)[Gal(a1-3)]Gal(b1-4)Glc", "in_short": "as §1"}, "[24]": {"molecular_target": "Fuc(a1-2)[Gal(a1-3)]Gal(b1-4)GlcNAc", "in_short": "as §1"}, "[25]": {"molecular_target": "Fuc(a1-2)[Gal(a1-3)]Gal(b1-4)GlcNAc(b1-2)Man(a1-3)[Fuc(a1-2)[Gal(a1-3)]Gal(b1-4)GlcNAc(b1-2)Man(a1-6)]Man(b1-4)GlcNAc(b1-4)GlcNAc", "in_short": "as §1"}, "[26]": {"molecular_target": "Fuc(a1-2)[Gal(a1-3)]Gal(b1-4)GlcNAc(b1-2)Man(a1-3)[Fuc(a1-2)[Gal(a1-3)]Gal(b1-4)GlcNAc(b1-2)Man(a1-6)]Man(b1-4)GlcNAc(b1-4)[Fuc(a1-6)]GlcNAc", "in_short": "as §1"}, "[27]": {"molecular_target": "Fuc(a1-2)[Gal(a1-3)]Gal(b1-4)GlcNAc(b1-3)GalNAc", "in_short": "as §1"}, "[28]": {"molecular_target": "Fuc(a1-2)[Gal(a1-3)]Gal(b1-4)GlcNAc(b1-6)GalNAc", "in_short": "as §1"}}, "note": "Some of the results follow.", "data": [{"binder": "B1", "values": [{"measurement": "glycan array binding signal (z-score)", "setting": "[1]", "value": 1.69}, {"measurement": "glycan array binding signal (z-score)", "setting": "[2]", "value": -0.225}, {"measurement": "glycan array binding signal (z-score)", "setting": "[3]", "value": -0.265}, {"measurement": "glycan array binding signal (z-score)", "setting": "[4]", "value": -0.258}, {"measurement": "glycan array binding signal (z-score)", "setting": "[5]", "value": -0.258}, {"measurement": "glycan array binding signal (z-score)", "setting": "[6]", "value": -0.267}, {"measurement": "glycan array binding signal (z-score)", "setting": "[7]", "value": -0.229}, {"measurement": "glycan array binding signal (z-score)", "setting": "[8]", "value": -0.237}, {"measurement": "glycan array binding signal (z-score)", "setting": "[9]", "value": -0.188}, {"measurement": "glycan array binding signal (z-score)", "setting": "[10]", "value": -0.283}, {"measurement": "glycan array binding signal (z-score)", "setting": "[11]", "value": -0.265}, {"measurement": "glycan array binding signal (z-score)", "setting": "[12]", "value": -0.197}, {"measurement": "glycan array binding signal (z-score)", "setting": "[13]", "value": -0.244}, {"measurement": "glycan array binding signal (z-score)", "setting": "[14]", "value": -0.275}, {"measurement": "glycan array binding signal (z-score)", "setting": "[15]", "value": -0.213}, {"measurement": "glycan array binding signal (z-score)", "setting": "Fuc(a1-2)Gal6S(b1-4)Glc", "value": -0.115}, {"measurement": "glycan array binding signal (z-score)", "setting": "[16]", "value": -0.259}, {"measurement": "glycan array binding signal (z-score)", "setting": "[17]", "value": -0.294}, {"measurement": "glycan array binding signal (z-score)", "setting": "Fuc(a1-2)[Gal(a1-3)]Gal", "value": -0.261}, {"measurement": "glycan array binding signal (z-score)", "setting": "[18]", "value": -0.256}, {"measurement": "glycan array binding signal (z-score)", "setting": "[19]", "value": 2.98}, {"measurement": "glycan array binding signal (z-score)", "setting": "[20]", "value": 2.23}, {"measurement": "glycan array binding signal (z-score)", "setting": "[21]", "value": 0.478}, {"measurement": "glycan array binding signal (z-score)", "setting": "[22]", "value": 0.341}, {"measurement": "glycan array binding signal (z-score)", "setting": "[23]", "value": 1.59}, {"measurement": "glycan array binding signal (z-score)", "setting": "[24]", "value": 2.82}, {"measurement": "glycan array binding signal (z-score)", "setting": "[25]", "value": 2.89}, {"measurement": "glycan array binding signal (z-score)", "setting": "[26]", "value": 1.42}, {"measurement": "glycan array binding signal (z-score)", "setting": "[27]", "value": 1.53}, {"measurement": "glycan array binding signal (z-score)", "setting": "[28]", "value": -0.283}]}]}
